Results published in the supplement of paper PMC11876631.
± gives the standard deviation of the averaged measurements. Laboratory Escherichia coli strains with one amino-acid change in an essential protein, pooled on minimal glucose agar with carbenicillin or gentamicin at twice the control MIC (plus kanamycin and chloramphenicol for the plasmids), 48 h. Fold change of barcode share against drug-free plates; higher = less susceptible. Active = above 20 in both replicates (the paper's putatively resistant). '<' = one read or none on drug, '>' = one read or none on a drug-free plate. Shares are relative, so most strains fall below 1 when a few take over. Listed are strains with at least 15 reads on both drug-free plates, and hits; most hits rest on fewer reference reads. Replicate rank correlation about 0.5. Edits are read from barcodes.

B1: pdxA; a variant is named by its letters at X, in order (parent)
chain: MVKTQRVVITPGEPAGIGPDLXVQLAQREWPVEXXXCADATLLTNRAAMLGLPLTLRPYSPNSPAQPQTAGTLTLLPVALRAPVTAGQLAVENGHYVVETXARACDGCLNGEFAALITGPVHKGVINDAGIPFTGHTEFFEERSQAKKVVMXLATEELRVALATTHLPLRDIADAITPALLHEVIAILHHDLRTKFGIAEPRILVCGLNPHAGEGGHMGTEEIDTIIPVLNELRAQGMKLNGPLPADTLFQPKYLDNADAVLAMYHDQGLPVLKYQGFGRGVNITLGLPFIRTSVDHGTALELAGRGKADVGSFITALNLAIKMIVNTQ
B2: hemH; numbered along this chain (parent)
chain: MRQTKTGILLANLGTPDAPTPEAVKRYLKQFLSDRRVVDTSRLLWWPLLRGVILPLRSPRVAKLYASVWMEGGSPLMVYSRQQQQALAQRLPEMPVALGMSYGSPSLESAVDELLAEHVDHIVVLPLYPQFSCSTVGAVWDELARILARKRSIPGISFIRDYADNHDYINALANSVRASFAKHGEPDLLLLSYHGIPQRYADEGDDYPQRCRTTTRELASALGMAPEKVMMTFQSRFGREPWLMPYTDETLKMLGEKGVGHIQVMCPGFAADCLETLEEIAEQNREVFLGAGGKKYEYIPALNATPEHIEMMANLVAAYR

Variants of: B1
Assay: barcode share on antibiotic plates over drug-free plates; higher = less susceptible
Details: with Escherichia coli (laboratory strain); antibiotic: carbenicillin; 2× MIC (3.1 µg/mL)
Method: (§1)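 A pool of E. coli strains, each edited to carry one amino-acid change in an essential protein, was grown for 48 h on minimal glucose agar with or without antibiotic; strain barcodes were sequenced; mean of two replicates.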

Row | Variant | fold change of barcode share
1 | VQVVLM | 0.359 ± 0.14
2 | ALVVLM | 0.607 ± 0.067
3 | WLVVLM | 0.743 ± 0.21
4 | VLVVAM | 0.49 ± 0.15
5 | VLVVLW | 0.96785 ± 0.00055
6 | VLVVLD | 0.455 ± 0.12
7 | VLVVLP | 0.585 ± 0.3
8 | VLVVLA | 0.43 ± 0.043
9 | VLVVLQ | 0.4405 ± 0.002
10 | VDVVLM | 0.686 ± 0.028
11 | PLVVLM | 0.46 ± 0.1
12 | VLVVDM | 0.468 ± 0.092
13 | VLVPLM | 0.601 ± 0.15
14 | VLVVLM L153Q | 0.427 ± 0.2
15 | VLWVLM | 0.36 ± 0.14
16 | VLVWLM | 0.419 ± 0.038
17 | VWVVLM | 0.438 ± 0.14
18 | VPVVLM | 0.381 ± 0.18
19 | VLVVPM | 0.419 ± 0.06
20 | VLVQLM | 0.35 ± 0.12
21 | VAVVLM | 0.457 ± 0.14
22 | DLVVLM | 0.524 ± 0.22
23 | VLVALM | 0.508 ± 0.14
24 | VLVVWM | 0.517 ± 0.33
25 | VLVVQM | 0.407 ± 0.18
26 | VLDVLM | 0.322 ± 0.15
27 | VLQVLM | 0.59 ± 0.23

Same assay, conditions: with Escherichia coli (laboratory strain); antibiotic: gentamicin; 2× MIC (MIC 0.45 µg/mL)

Row | Variant | fold change of barcode share
28 | VQVVLM | < 0.004
29 | ALVVLM | 0.0091 ± 0.0035
30 | WLVVLM | 0.0362 ± 0.036
31 | VLVVAM | 0.0135 ± 0.0072
32 | VLVVLW | < 0.0185
33 | VLVVLD | < 0.0192
34 | VLVVLA | < 0.0211
35 | VLVVLQ | 0.00978 ± 0.0056
36 | VDVVLM | < 0.0121
37 | PLVVLM | < 0.00889
38 | VLVVDM | 0.0226 ± 0.021
39 | VLVPLM | 0.00436 ± 0.00063
40 | VLVVLM L153Q | 0.0105 ± 0.0014
41 | VLWVLM | 0.00461 ± 0.0028
42 | VLVWLM | < 0.0026
43 | VWVVLM | < 0.00665
44 | VLVVPM | 0.0212 ± 0.0089
45 | VLVQLM | < 0.00283
46 | VAVVLM | 0.00752 ± 0.0013
47 | DLVVLM | 0.00833 ± 0.003
48 | VLVALM | 0.00466 ± 0.0017
49 | VLVVWM | < 0.0201
50 | VLVVQM | 0.0127 ± 0.0034
51 | VLDVLM | < 0.00327
52 | VLQVLM | 0.0126 ± 0.0088

Variants of: B2
Assay: as above
Details: with Escherichia coli (laboratory strain); antibiotic: carbenicillin; 2× MIC (3.1 µg/mL)
Method: as §1

Row | Variant | fold change of barcode share
53 | L191A | 0.268 ± 0.12
54 | L191P | 0.183 ± 0.023
55 | L191W | 0.462 ± 0.0091
56 | L191Q | 0.422 ± 0.0065
57 | L191D | 2.78 ± 0.79
58 | L190W | 0.498 ± 0.48
59 | L190D | 0.496 ± 0.23
60 | L190P | 0.485 ± 0.17
61 | L190Q | 0.924 ± 0.85
62 | L190A | 0.573 ± 0.03
63 | V124A | 0.25 ± 0.045
64 | V124P | 0.753 ± 0.28
65 | V124Q | 1.94 ± 1.9
66 | L125Q | 0.323 ± 0.0091
67 | L125A | 0.16 ± 0.11
68 | L125W | 0.177 ± 0.053
69 | W69P | 1.01 ± 0.092
70 | W69A | 0.474 ± 0.091
71 | W69D | 0.368 ± 0.036
72 | W69Q | 0.306 ± 0.12
73 | F269Q | 0.328 ± 0.063
74 | F269A | 0.376 ± 0.2
75 | M265Q | 0.245 ± 0.057
76 | M265D | 0.697 ± 0.33
77 | M265A | 0.311 ± 0.027
78 | L189A | 0.264 ± 0.035
79 | L189P | 0.29 ± 0.065
80 | L189W | 0.33 ± 0.057
81 | L189Q | 0.217 ± 0.13

Same assay, conditions: with Escherichia coli (laboratory strain); antibiotic: gentamicin; 2× MIC (MIC 0.45 µg/mL)

Row | Variant | fold change of barcode share
82 | L191A | 0.00856 ± 0.0067
83 | L191P | 0.013 ± 0.011
84 | L191W | 0.00777 ± 0.006
85 | L191Q | < 0.00536
86 | L191D | 0.079 ± 0.064
87 | L190W | < 0.0167
88 | L190D | 0.00626 ± 0.0054
89 | L190P | 0.0276 ± 0.03
90 | L190Q | < 0.00477
91 | L190A | < 0.00271
92 | V124A | < 0.00662
93 | V124P | 7.79 ± 8.2
94 | V124Q | 0.0225 ± 0.0044
95 | L125Q | < 0.00895
96 | L125W | 0.0088 ± 0.0035
97 | W69P | 209 [active]
98 | W69A | 0.00274 ± 0.0029
99 | W69D | 0.00633 ± 0.0048
100 | W69Q | 0.0032 ± 0.0011
101 | F269Q | 0.0147 ± 0.013
102 | F269A | 0.00801 ± 0.0033
103 | M265Q | < 0.00519
104 | M265D | 0.00666 ± 0.0022
105 | M265A | 0.00707 ± 0.0022
106 | L189A | 0.00519 ± 0.00059
107 | L189P | < 0.0121
108 | L189W | 0.00356 ± 0.0019
109 | L189Q | 0.0176 ± 0.02
